The source of these data is publication PMC4336329 (PLoS ONE, 2015).

SMILES strings stand for the structures. The whole screen tested about 310,000 compounds, of which about 14,000 (4.5%) showed an effect of 50% or more. Effects have a minus sign here. Some of the results follow.
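Also: peak tail current of the secondary pulse compared with the same well before compound.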

In this test the target is human ether-à-go-go-related gene (hERG) potassium channel (human, UniProt Q12809). As to the kind of experiment: primary screen, population patch clamp on CHO cells stably expressing hERG.
human ether-à-go-go-related gene (hERG) potassium channel, sequence (Q12809 whole entry, looked up): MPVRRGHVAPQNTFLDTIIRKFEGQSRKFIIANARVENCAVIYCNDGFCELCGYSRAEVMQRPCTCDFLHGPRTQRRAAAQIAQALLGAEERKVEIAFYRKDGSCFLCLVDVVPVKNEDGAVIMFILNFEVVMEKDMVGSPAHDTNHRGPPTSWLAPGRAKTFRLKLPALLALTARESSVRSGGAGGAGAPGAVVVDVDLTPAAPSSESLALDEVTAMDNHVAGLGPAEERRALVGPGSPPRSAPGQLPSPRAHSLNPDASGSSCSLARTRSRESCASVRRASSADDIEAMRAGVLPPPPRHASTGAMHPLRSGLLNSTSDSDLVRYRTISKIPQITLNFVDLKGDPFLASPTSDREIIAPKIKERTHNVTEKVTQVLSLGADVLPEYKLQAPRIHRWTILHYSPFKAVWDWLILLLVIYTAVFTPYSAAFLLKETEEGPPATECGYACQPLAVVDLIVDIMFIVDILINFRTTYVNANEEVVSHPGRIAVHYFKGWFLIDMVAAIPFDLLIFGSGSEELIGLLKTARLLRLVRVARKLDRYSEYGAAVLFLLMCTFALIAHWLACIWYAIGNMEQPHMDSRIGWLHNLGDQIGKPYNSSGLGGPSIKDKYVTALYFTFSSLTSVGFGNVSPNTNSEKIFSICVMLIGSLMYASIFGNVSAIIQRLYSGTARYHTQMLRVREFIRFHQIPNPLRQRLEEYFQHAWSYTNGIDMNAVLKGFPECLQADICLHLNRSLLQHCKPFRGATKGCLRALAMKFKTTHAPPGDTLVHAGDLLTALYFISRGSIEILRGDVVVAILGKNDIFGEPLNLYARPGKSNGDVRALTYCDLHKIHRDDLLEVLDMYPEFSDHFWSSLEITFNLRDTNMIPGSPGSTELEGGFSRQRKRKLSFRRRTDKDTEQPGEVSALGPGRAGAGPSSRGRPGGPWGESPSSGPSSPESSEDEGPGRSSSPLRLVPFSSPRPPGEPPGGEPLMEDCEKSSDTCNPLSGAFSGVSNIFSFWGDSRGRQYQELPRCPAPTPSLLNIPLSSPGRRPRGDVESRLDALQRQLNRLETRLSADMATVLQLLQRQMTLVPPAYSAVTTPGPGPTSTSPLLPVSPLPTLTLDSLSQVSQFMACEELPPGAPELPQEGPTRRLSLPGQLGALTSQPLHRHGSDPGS
`CC(C)c1ccc(-c2cc(C(=O)N3N=C(C(F)F)CC3(O)C(F)F)c3ccccc3n2)cc1` (stereo not drawn): the “hERG current change (%, negative = inhibition) at 10uM” value was determined as 19.9%.
As to `CCC(C(=O)NCCCN1CCN(C)CC1)n1nc(C)c2sc3ccccc3c2c1=O` (stereo not drawn), the “hERG current change (%, negative = inhibition) at 10uM” value came out at 0.429%.
To `CC1Sc2ccc(S(=O)(=O)CCC(=O)NCc3ccccc3)cc2NC1=O` (stereo not drawn) belongs 17.2%; to `O=C(NCc1ccc(F)cc1)NC(=O)c1ccc(Cl)cc1`, 8.5%; to `COc1ccc(Nc2ncnc3sccc23)cc1`, 15.1%.
In the case of `Cc1cc(C)c(C(=O)CN2C(=O)NC3(CCCCC3)C2=O)cc1C` it was 30.3%; in that of `Cc1ccc(NC2=NCC(=O)N2Cc2ccc3c(c2)OCO3)c(C)c1`, -1.91%; in that of `Cc1oc(-c2ccccc2F)nc1CN1CCC(C(=O)NCc2cccs2)CC1`, -63.7%.
For `Nc1nc(Nc2ccc(Cl)cc2Cl)nc(C(F)(F)F)n1`, the “hERG current change (%, negative = inhibition) at 10uM” value stood at 2.43%.
For the compound `COc1ccc(NC(=O)Cc2nnc(SCC(=O)Nc3nccs3)n2C)cc1`, the “hERG current change (%, negative = inhibition) at 10uM” value is 6.78%.
To `COc1ccc(CCNCC(=O)Nc2ccc(C)c(S(=O)(=O)N(C)C)c2)cc1OC` belongs -21.1%; to `CCCCOc1ccc(C(=O)N2CCN(CC(=O)Nc3ccc(C)cc3)CC2)cc1OC`, -47.1%.
For `COc1cccc(CC2(CO)CCN(C(=O)NCCc3ccccc3)CC2)c1`, the “hERG current change (%, negative = inhibition) at 10uM” value was 0.136%.
Regarding `Cc1c(C(=O)C(=O)NCc2cccs2)c2ccccc2n1C`, the “hERG current change (%, negative = inhibition) at 10uM” value is reported as -15.4%.
In the case of `S=c1nc(SCc2ccccc2)[nH]c2ccccc12` it was -15.3%.
To `O=C(NC1CCCCCC1)C1CCCN(S(=O)(=O)c2cnc[nH]2)C1` (stereo not drawn) belongs 21.9%.
In the case of `CC(C(=O)NC1CCCc2ccccc21)N1CCN(c2ccc(F)cc2)CC1` (stereo not drawn) it was -35.6%; in that of `COc1ccc(-n2ccnc2SCC(=O)Nc2ccc(OC)cc2OC)cc1`, 2.82%; in that of `CN1CCN(Cc2nc3ccccc3c(=O)n2Cc2nc(-c3ccc4ccccc4c3)cs2)CC1`, -6.55%.
Regarding `COc1ccnc(-n2cccc2C#N)c1C#N`, the “hERG current change (%, negative = inhibition) at 10uM” value is listed as 3.69%.
To `CN(Cc1ccccc1)C(=O)c1ccccc1NC(=O)c1ccccc1` belongs -12.7%.
In the case of `CCOC(=O)Cc1nnc(NCc2ccccc2)c2ccccc12` it was -14.1%.
As to `CC(OCC(O)CN1CCCCC1CCO)c1ccc(Cl)cc1` (stereo not drawn), the “hERG current change (%, negative = inhibition) at 10uM” value was found to be 4.2%.
Turning to `CN(C(=O)COc1ccc(Cl)cc1Br)C1CCCCC1`, the “hERG current change (%, negative = inhibition) at 10uM” value is listed as -11.5%.
Take `CC1CCN(S(=O)(=O)c2cccc(C(=O)NCC3CCCO3)c2)CC1` (stereo not drawn): the “hERG current change (%, negative = inhibition) at 10uM” value came out at 2.25%.
With `O=C(N/N=C/c1ccc(OC(F)F)cc1)C1=COCCO1`, the “hERG current change (%, negative = inhibition) at 10uM” value is -13.2%.
To `CCC(C(=O)NCCc1ccc(C)cc1)n1nc(C)c2c(C)n(-c3ccccc3)nc2c1=O` (stereo not drawn) belongs -39.1%; to `CCc1ccc(OC)c(S(=O)(=O)Nc2ccc(Cc3ccncc3)cc2)c1`, -24.8%.
In the case of `CCOC(=O)C1=CC[C@@H](c2cc3ccc(OC)cc3n2C)N(S(=O)(=O)c2ccc(C)cc2)[C@H]1C(=O)OCC` it was 0.974%; in that of `C=CCNC(=O)CCC(=O)NNc1nc2ccccc2c2nc(-c3ccccc3)nn12`, -20.8%; in that of `CCNC(=O)c1ccc(N(C)S(=O)(=O)c2cccs2)cc1`, 26.5%.
To `COc1ccc([C@H]2CC(=O)C=C(c3cccc(OC)c3)C2)cc1` belongs -82.1%; to `CCN1CCN(CC(O)COc2ccc3c(c2)CCC3)CC1.Cl` (stereo not drawn), 5.59%; to `COc1ccccc1-c1nnc(NC(=O)c2ccc(S(=O)(=O)N(C)CC3CCCO3)cc2)o1` (stereo not drawn), 2.99%.
With `CN(C(=O)c1ccc(Cl)nc1)C1(c2ccccc2Cl)CCCCC1=O` (stereo not drawn), the “hERG current change (%, negative = inhibition) at 10uM” value came out at 0.299%.
`O=C(COC(=O)c1cc2ccccc2cc1O)c1ccccc1`: the “hERG current change (%, negative = inhibition) at 10uM” value is -7.66%.
In the case of `CCOC(=O)C1CCCN(C/C=C/c2ccccc2[N+](=O)[O-])C1` (stereo not drawn), the “hERG current change (%, negative = inhibition) at 10uM” value is -68.2%.
In the case of `O=C(/C=C/c1ccco1)N(Cc1ccc(F)cc1)C1CCS(=O)(=O)C1` (stereo not drawn) it was -30.5%; in that of `O=C(/C=C\Nc1ccccc1Br)c1ccc2c(c1)OCO2`, 21.5%.
In the case of `Cc1csc(C(C)N(C)C(=O)CCc2nnc(CCc3ccccc3)o2)n1` (stereo not drawn) it was -12.9%; in that of `O=C(CN(CC1CCCO1)C(=O)CNS(=O)(=O)c1ccccc1)NCc1ccccc1` (stereo not drawn), -7.15%; in that of `Cc1noc(C)c1C(=O)OCC(=O)NCc1ccc(Cl)cc1`, 3.82%.
To `Cc1cccc(N2CCN(C(=O)c3cc4c(=O)[nH]c5ccccc5c4n3C)CC2)c1C` belongs 14.6%; to `COc1ccccc1OCc1nnc(SCC(=O)N2CCCC2)o1`, 15.7%.
Take `COCCn1nnnc1C(c1cccc(OC)c1OC)N1CCN(C2CCCCC2)CC1.Cl` (stereo not drawn): the “hERG current change (%, negative = inhibition) at 10uM” value was -3.08%.
